Laboratory results: the supplement of paper PMC12217912
This is one part of the list. Sequences were assembled here from the parent chain. Inactive controls read about 0.05.

B1: TEV protease; numbered along this chain (parent)
chain: MGESLFKGPRDYNPISSSICHLTNESDGHTTSLYGIGFGPFIITNKHLFRRNNGTLVVQSLHGVFKVKDTTTLQQHLVDGRDMIIIRMPKDFPPFPQKLKFREPQREERICLVTTNFQTKSMSSMVSDTSCTFPSGDGIFWKHWIQTKDGQCGSPLVSTRDGFIVGIHSASNFTNTNNYFTSVPKNFMELLTNQEAQQWVSGWRLNADSVLWGGHKVFMVKPEEPFQPVKEATQL

Variants of: B1
Assay: raw area under fraction-flipped curve 0-4 h after induction (AUC4h, not background-subtracted), DNA-recorder readout of cleavage of the substrate (dimensionless); higher = more cleavage of the substrate by the protease variant
Settings: temperature: 34 °C; time window: 0-4 h after rhamnose induction
Description: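 In vivo DNA recorder in E. coli TOP10(DE3) ΔrhaA at 34 °C. Each TEVp single-site mutant (parent TEVp 0) is paired with a single-site variant of the 7-mer TEVs (canonical ENLYFQ|S). The substrate sits between flexible linkers in a Bxb1-sfGFP-TEVs-SsrA fusion, so cleavage stabilises Bxb1 and speeds flipping of a recombination array, read by NGS. The value is the raw area under the fraction-flipped curve over 0-4 h after rhamnose induction (AUC4h), with ≥20 reads per time point. It is not background-subtracted; inactive controls average about 0.047.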
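Further: Bxb1 expression induced with 0.2% (w/v) L-rhamnose at OD600 near 0.5, cultures sampled hourly, flipped fraction per protease–substrate barcode pair counted by paired-end Illumina sequencing.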

Variant	area with substrate ENLYFQA	area with substrate ENLYFQC	area with substrate ENLYFQE	area with substrate ENLYFQG	area with substrate ENLYFQH	area with substrate ENLYFQI	area with substrate ENLYFQK	area with substrate ENLYFQL	area with substrate ENLYFQM	area with substrate ENLYFQN	area with substrate ENLYFQQ	area with substrate ENLYFQR	area with substrate ENLYFQS	area with substrate ENLYFQT	area with substrate ENLYFQV	area with substrate ENLYFQY	area with substrate ENLYFQD	area with substrate ENLYFQF	area with substrate ENLYFQP	area with substrate ENLYFQW
I19Y	0.0775	0.099	0.0468	0.0515	0.0575	0.0384	0.0518	0.05	0.047	0.0674	0.0612	0.0525	0.0714	0.0641	0.0518	0.0606				
I19V	0.106	0.0956		0.0966		0.0539	0.0622	0.0671	0.0958	0.0833	0.0706	0.0599	0.104	0.0622			0.0727	0.0767	0.0557	
I43E	0.0389	0.0689		0.0408	0.042		0.0433	0.0565	0.0468	0.0441	0.0552	0.0417	0.0473	0.0557		0.036	0.0431	0.0165	0.0535	0.0283
I43A	0.088	0.0687		0.0735	0.0734	0.0604	0.0702	0.06	0.0609	0.0707			0.0754	0.0544	0.0554	0.0575	0.0711	0.0528		
I43Q	0.0451	0.036	0.0664	0.0527	0.0574	0.0509	0.0443	0.0307	0.0417	0.0446		0.0541	0.0475	0.0457	0.0322	0.042	0.0542	0.059	0.0559	0.0415
S26H	0.0751	0.0681			0.0755	0.0522		0.0567	0.0695			0.0656	0.0755			0.0917			0.0545	0.0404
S26W	0.0825	0.082		0.0585	0.0717	0.0593		0.0594	0.0721	0.0201	0.0515	0.0626	0.0791	0.0621	0.0681		0.0444			
E25W	0.136	0.141	0.051	0.0888	0.0811	0.0548		0.0599	0.084		0.077	0.0529	0.107	0.0613	0.0504		0.0675		0.0474	0.0816
E25N	0.108	0.119	0.062	0.11		0.0602	0.0672	0.0643	0.0925	0.0592	0.0753	0.0658	0.104	0.0652		0.0922	0.0604			0.0707
E25Y	0.0807	0.108		0.169		0.0668	0.0558	0.0612	0.0912	0.071		0.061	0.104	0.0729		0.0781	0.0885	0.0679	0.0524	0.0614
E25G	0.074	0.106		0.0875	0.0676	0.0584	0.0563	0.0591	0.0823	0.0748	0.0655	0.06	0.089	0.0605	0.0636	0.0668	0.0667		0.0462	0.0648
F41I	0.09	0.105	0.0642	0.0947	0.0826	0.0516	0.053	0.0672	0.0919	0.0718	0.0692	0.0574	0.0947	0.0623		0.0655	0.0867		0.0591	0.0616
G28I	0.0729	0.0852		0.0767	0.0565	0.0708	0.0586	0.0556	0.0887	0.0621	0.0737	0.0583	0.073	0.0577	0.0532	0.0778	0.0572	0.0635		0.0704
G28D	0.102	0.123	0.0679	0.0846	0.0697	0.053	0.0712	0.0558	0.0889	0.0783	0.0736	0.0645	0.0993	0.0555	0.0556	0.0778	0.0647	0.0639		0.071
L22P	0.0115	0.0438	0.0196	0.0421	0.0578	0.0525	0.0477	0.0412	0.0487	0.0414	0.0389	0.0447	0.045	0.0412	0.0415	0.0287		0.0406	0.0046	0.0411
L22E	0.0499	0.0531	0.0489		0.0565	0.0379	0.0343	0.0345	0.0205	0.0308		0.0489	0.0442	0.0485	0.0415	0.0333			0.0462	0.0461
L33I	0.0754	0.0766		0.0829		0.0503	0.0669	0.0593	0.057	0.0692	0.0835	0.0573	0.0844	0.0535	0.056	0.0406	0.0558	0.049	0.0656	0.0509
L33M	0.0633	0.0907			0.0638	0.0605	0.0587	0.059	0.0805	0.053		0.0511	0.0778	0.0417	0.0504	0.0685		0.0564		
T30Y	0.0992			0.0897	0.0863	0.0598	0.0609	0.0648	0.0846	0.0823	0.0911	0.0611	0.102	0.0672	0.0579	0.0846	0.0786			0.0665
T30L	0.0931	0.107		0.0906	0.104	0.0631			0.0993	0.0733		0.0659	0.103	0.0644	0.0574		0.0893	0.0783	0.0577	0.0654
C20Q	0.0532	0.0563				0.0424		0.0441		0.052		0.0418	0.0547	0.0465	0.0396	0.0528				
C20N	0.0517	0.0681		0.0547	0.0508	0.0534	0.0459	0.0523	0.0662	0.0718	0.0489	0.0494	0.0601	0.0446	0.0386	0.0597	0.0601	0.046		0.0567
